Like-named read-outs stand apart in the source and are kept apart here. Results are given in words; binding and its absence hold for the method and conditions named. For some assays here: Binding seen in cells or lysates may run through a third protein. Some binding calls cover weakened binding; strength is not graded here. For some assays here: Sequences can lack the tags named with a protein.
T1: GL3 (yeast two-hybrid fusion) (Morus alba L. cv. Hongguo2)
T1 sequence: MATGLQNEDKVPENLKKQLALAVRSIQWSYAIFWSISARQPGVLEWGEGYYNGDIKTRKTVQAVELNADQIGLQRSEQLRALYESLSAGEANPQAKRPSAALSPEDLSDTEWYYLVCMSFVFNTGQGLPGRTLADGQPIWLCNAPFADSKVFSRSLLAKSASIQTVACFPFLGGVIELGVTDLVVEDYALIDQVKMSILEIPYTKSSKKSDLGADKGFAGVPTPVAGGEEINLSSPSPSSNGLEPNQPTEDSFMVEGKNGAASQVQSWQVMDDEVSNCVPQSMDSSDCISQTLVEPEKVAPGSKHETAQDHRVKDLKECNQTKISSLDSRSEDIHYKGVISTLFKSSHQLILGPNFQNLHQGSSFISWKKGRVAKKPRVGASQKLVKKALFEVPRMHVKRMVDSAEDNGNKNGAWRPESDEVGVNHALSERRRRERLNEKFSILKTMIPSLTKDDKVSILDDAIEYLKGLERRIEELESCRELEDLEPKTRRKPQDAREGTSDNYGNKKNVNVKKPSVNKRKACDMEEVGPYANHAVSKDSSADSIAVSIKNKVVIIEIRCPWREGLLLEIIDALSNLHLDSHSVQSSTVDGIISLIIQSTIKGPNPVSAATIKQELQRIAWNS

The chains behind the UniProt entries cited, without tags or fusion partners.
UniProt A0A7G3WX95: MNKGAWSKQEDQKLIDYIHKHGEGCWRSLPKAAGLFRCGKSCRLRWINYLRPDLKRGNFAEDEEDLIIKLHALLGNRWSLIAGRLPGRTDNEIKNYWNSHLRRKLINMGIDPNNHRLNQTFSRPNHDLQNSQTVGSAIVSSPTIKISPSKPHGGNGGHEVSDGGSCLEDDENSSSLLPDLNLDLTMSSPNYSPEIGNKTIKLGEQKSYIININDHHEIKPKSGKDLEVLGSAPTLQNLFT

T2: TTG1 (yeast two-hybrid fusion) (Morus alba L. cv. Hongguo2)
T2 sequence: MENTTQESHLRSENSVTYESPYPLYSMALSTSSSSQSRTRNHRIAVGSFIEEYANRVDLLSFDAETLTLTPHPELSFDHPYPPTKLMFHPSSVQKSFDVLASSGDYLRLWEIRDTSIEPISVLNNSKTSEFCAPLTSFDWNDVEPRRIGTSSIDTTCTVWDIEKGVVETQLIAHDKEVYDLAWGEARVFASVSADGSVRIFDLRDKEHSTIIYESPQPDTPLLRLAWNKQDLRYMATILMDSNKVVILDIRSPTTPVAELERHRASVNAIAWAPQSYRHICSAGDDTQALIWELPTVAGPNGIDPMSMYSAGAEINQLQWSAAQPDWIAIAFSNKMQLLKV

T3: TTG1 in pBridge MCS I (yeast three-hybrid bait) (Morus alba L. cv. Hongguo2)
T3 sequence: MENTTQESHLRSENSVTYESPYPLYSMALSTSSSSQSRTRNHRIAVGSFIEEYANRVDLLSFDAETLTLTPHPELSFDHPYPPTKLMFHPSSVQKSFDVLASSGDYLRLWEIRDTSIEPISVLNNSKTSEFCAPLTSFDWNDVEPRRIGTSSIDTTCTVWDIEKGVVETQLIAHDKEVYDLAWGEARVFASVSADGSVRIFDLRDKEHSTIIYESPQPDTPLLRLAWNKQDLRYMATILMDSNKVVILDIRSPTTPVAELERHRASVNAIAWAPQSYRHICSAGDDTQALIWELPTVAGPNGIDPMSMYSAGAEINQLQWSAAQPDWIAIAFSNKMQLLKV

T4: CLuc-GL3 (Morus alba L. cv. Hongguo2)
T4 sequence: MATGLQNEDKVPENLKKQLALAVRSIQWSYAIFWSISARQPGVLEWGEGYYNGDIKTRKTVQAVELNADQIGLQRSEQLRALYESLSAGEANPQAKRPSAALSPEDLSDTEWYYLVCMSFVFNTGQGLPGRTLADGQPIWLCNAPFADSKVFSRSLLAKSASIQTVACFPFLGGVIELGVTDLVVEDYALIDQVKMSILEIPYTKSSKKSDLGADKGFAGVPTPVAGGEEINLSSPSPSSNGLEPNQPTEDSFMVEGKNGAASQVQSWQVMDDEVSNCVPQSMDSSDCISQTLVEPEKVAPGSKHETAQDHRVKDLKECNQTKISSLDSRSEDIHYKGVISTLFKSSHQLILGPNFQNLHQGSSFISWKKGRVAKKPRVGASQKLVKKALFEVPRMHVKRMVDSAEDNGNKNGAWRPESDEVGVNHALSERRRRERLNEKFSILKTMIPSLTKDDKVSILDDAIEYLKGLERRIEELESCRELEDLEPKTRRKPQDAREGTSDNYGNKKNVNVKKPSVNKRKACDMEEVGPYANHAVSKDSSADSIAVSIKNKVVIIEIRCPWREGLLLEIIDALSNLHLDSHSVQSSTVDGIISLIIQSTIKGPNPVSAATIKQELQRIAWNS

T5: TTG1 in pCambia1300cLUC (CLuc-TTG1) (Morus alba L. cv. Hongguo2)
T5 sequence: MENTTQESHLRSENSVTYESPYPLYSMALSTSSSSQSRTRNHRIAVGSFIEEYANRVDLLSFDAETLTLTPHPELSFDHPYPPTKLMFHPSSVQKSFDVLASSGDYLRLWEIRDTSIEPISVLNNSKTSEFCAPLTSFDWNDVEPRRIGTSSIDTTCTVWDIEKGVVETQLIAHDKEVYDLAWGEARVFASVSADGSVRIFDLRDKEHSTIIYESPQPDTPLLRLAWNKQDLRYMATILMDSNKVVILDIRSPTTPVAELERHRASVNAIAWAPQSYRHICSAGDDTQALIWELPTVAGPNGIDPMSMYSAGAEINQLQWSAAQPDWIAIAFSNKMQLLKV


Legend:
[1] = target: T1, GL3 (yeast two-hybrid fusion) (Morus alba L. cv. Hongguo2); test: two-hybrid; yeast two-hybrid with pGADT7 and pGBKT7 fusions; SD-Trp-Leu-His-Ade+(X-a-Gal) medium
[2] = target: T2, TTG1 (yeast two-hybrid fusion) (Morus alba L. cv. Hongguo2); test: as above
[3] = target: bHLH3 (yeast two-hybrid fusion) (Morus alba L. cv. Hongguo2); test: as above
[4] = target: T3, TTG1 in pBridge MCS I (yeast three-hybrid bait) (Morus alba L. cv. Hongguo2); test: yeast three-hybrid; Y2HGold; TTG1 in pBridge MCS I, GL3 in pBridge MCS II, MYB in pGADT7; SC-Leu-Trp-Met-His medium with 0 and 30 mM 3-AT
[5] = target: T3, TTG1 in pBridge MCS I (yeast three-hybrid bait) (Morus alba L. cv. Hongguo2); test: yeast three-hybrid; Y2HGold; TTG1 in pBridge MCS I, bHLH3 in pBridge MCS II, MYB in pGADT7; SC-Leu-Trp-Met-His medium with 0 and 30 mM 3-AT
[6] = target: T4, CLuc-GL3 (Morus alba L. cv. Hongguo2); test: split reporter; split luciferase complementation in Nicotiana benthamiana leaves (pCambia1300nLUC / pCambia1300cLUC), firefly luciferase activity 3 days after infiltration
[7] = target: CLuc-bHLH3 (Morus alba L. cv. Hongguo2); test: as above
[8] = target: T5, TTG1 in pCambia1300cLUC (CLuc-TTG1) (Morus alba L. cv. Hongguo2); test: as above
[9] = target: T3, TTG1 in pBridge MCS I (yeast three-hybrid bait) (Morus alba L. cv. Hongguo2); test: yeast three-hybrid; Y2HGold; TTG1 in pBridge MCS I, GL3 in pBridge MCS II, MYB in pGADT7; SC-Leu-Trp-Met-His medium with 0 and 30 mM 3-AT; remark: listed apart in the source
[10] = target: T1, GL3 (yeast two-hybrid fusion) (Morus alba L. cv. Hongguo2); test: two-hybrid; yeast two-hybrid with pGADT7 and pGBKT7 fusions; SD-Trp-Leu-His-Ade+(X-a-Gal) medium; remark: listed apart in the source
[11] = target: T2, TTG1 (yeast two-hybrid fusion) (Morus alba L. cv. Hongguo2); test: as above; remark: listed apart in the source
[12] = target: bHLH3 (yeast two-hybrid fusion) (Morus alba L. cv. Hongguo2); test: as above; remark: listed apart in the source

| Molecule | binding [5] | binding [9] | binding [10] | binding [11] | binding [12] | other results |
| --- | --- | --- | --- | --- | --- | --- |
| MYB4 (yeast two-hybrid fusion) (from UniProt A0A7G3WX95 1-240) | binds | – | – | – | – | binding [1]: binds; binding [2]: binds; binding [3]: binds; binding [4]: binds |
| MYB4-NLuc (from UniProt A0A7G3WX95 1-240) | – | – | – | – | – | binding [6]: binds; binding [7]: binds; binding [8]: binds |
| GL3 in pBridge MCS II (yeast three-hybrid bridge) (protein, UniProt A0A7G3WX92 1-624) MATGLQNEDKVPENLKKQLALAVRSIQWSYAIFWSISARQPGVLEWGEGYYNGDIKTRKTVQAVELNADQIGLQRSEQLRALYESLSAGEANPQAKRPSAALSPEDLSDTEWYYLVCMSFVFNTGQGLPGRTLADGQPIWLCNAPFADSKVFSRSLLAKSASIQTVACFPFLGGVIELGVTDLVVEDYALIDQVKMSILEIPYTKSSKKSDLGADKGFAGVPTPVAGGEEINLSSPSPSSNGLEPNQPTEDSFMVEGKNGAASQVQSWQVMDDEVSNCVPQSMDSSDCISQTLVEPEKVAPGSKHETAQDHRVKDLKECNQTKISSLDSRSEDIHYKGVISTLFKSSHQLILGPNFQNLHQGSSFISWKKGRVAKKPRVGASQKLVKKALFEVPRMHVKRMVDSAEDNGNKNGAWRPESDEVGVNHALSERRRRERLNEKFSILKTMIPSLTKDDKVSILDDAIEYLKGLERRIEELESCRELEDLEPKTRRKPQDAREGTSDNYGNKKNVNVKKPSVNKRKACDMEEVGPYANHAVSKDSSADSIAVSIKNKVVIIEIRCPWREGLLLEIIDALSNLHLDSHSVQSSTVDGIISLIIQSTIKGPNPVSAATIKQELQRIAWNS | – | binds | – | – | – | – |

Further lines, with some results ahead:

| binding [5] | binding [9] | binding [10] | binding [11] | binding [12] | Molecule | other results |
| --- | --- | --- | --- | --- | --- | --- |
| – | – | no binding | no binding | no binding | TT2L3 (yeast two-hybrid fusion) (protein, UniProt A0A7G3WX90 1-238) MGERRPRISGGSDEGSSRRWTAMEDKTLTEYIRINGERQWNCLPQNAGLKKSGRSCRLRWLNYLKPGIKRGNISQKEEDTIIRLHKNLGNRWSVIAGLLPGRTDNEIKNYWNTKISKKIKEDDCKADSTTSSDPKPSIGHESLEVPNLTTKQQLGLCEVPQTSLNESDETSIPSPEEARMELEDDPVAAQPRDIYGVVHEHFETILSPVRICEDKWQLMHDDVWMDFEIWNTFPDQQY | – |
| binds | binds | binds | binds | binds | MYBA (yeast two-hybrid fusion) (protein, UniProt A0A7G3WX87 1-311) MQTEGCSSTGGVRKGAWTREEDILLKKCIDKYGEGKWQLVPSRAGLNRCRKSCRLRWMNYLKPDVKRGEFTVDEVDLILRLHKLLGNRWALIAGRIPGRTANDVKNYWNTHLRKKVALFPHDKNTKNTNNDIIAKSKVFRPRPRTPKTQPSLTNKNNSASSTTNFAAISINIQPTDDGNNNNNNNINYNNNNNNEPVIPVLEDSKYWWESLLDDITSDEGVANSVSSTGLLDHGQPNNGNIANFLSELEADQPALSISPWPTDVTDSATSTCVNLVEDDYGHQNSWTDFIMDMDVELWGLPSKDQGNAEMQ | – |
